Laboratory results from the supplement of paper PMC12645437, “Orthogonal IMiD-Degron Pairs Induce Selective Protein Degradation in Cells” (ACS Chemical Biology, 2025).
This is one part of the list.

Molecular target: no compound (DMSO)
Assay: log2 fold change of degron read counts, EGFP-low vs EGFP+ sorted cells; higher = lower degron-EGFP level without compound (poor expression or instability)
Settings: compound: DMSO control; 18 h
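Also: jurkat cells carrying a lentiviral library of mutant zinc finger degrons fused to EGFP plus mCherry, mCherry+ cells FACS sorted, degron abundance counted by next-generation sequencing.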

| Sequence | log2 fold change of degron read counts |
| --- | --- |
| FTCEICGRPFTQKGNLLRHIKL | -1.7 |
| FFCNVCGAIFTQKGNLLRHIKL | 0.413 |
| FHCDQCGAMFTQKGNLLRHIKL | -1.46 |
| FLCPICGHMFTQKGNLLRHIKL | 0.351 |
| FWCEICGRNFTQKGNLLRHIKL | -0.181 |
| FYCEICGAFFTQKGNLLRHIKL | 0.556 |
| FECDQCGAIFTQKGNLLRHIKL | -1.76 |
| FTCDQCGALFTQKGNLLRHIKL | -0.986 |
| FCCPICGAGFTQKGNLLRHIKL | -0.544 |
| FGCEICGAKFTQKGNLLRHIKL | -1.31 |
| FDCEICGRRFTQKGNLLRHIKL | -1.53 |
| FICNVCGATFTQKGNLLRHIKL | -0.57 |
| FKCPICGHVFTQKGNLLRHIKL | -0.512 |
| FMCNQCGRTFTQKGNLLRHIKL | -0.48 |
| FGCDICGATFTQKGNLLRHIKL | -1.93 |
| FRCEICGANFTQKGNLLRHIKL | -1.17 |

| Sequence | log2 fold change of degron read counts |
| --- | --- |
| FTCEQCGAGFTQKGNLLRHIKL | -1.86 |
| FDCDVCGAGFTQKGNLLRHIKL | -1.29 |
| FSCPICGRKFTQKGNLLRHIKL | -1.6 |
| FMCPICGRAFTQKGNLLRHIKL | 0.221 |
| FLCEICGRDFTQKGNLLRHIKL | -1.59 |
| FECPVCGAFFTQKGNLLRHIKL | -1.15 |
| LWCNQCGFSCTQKGNLLRHIKL | 1.66 |
| FKCNICGAPFTQKGNLLRHIKL | -0.474 |
| FFCNQCGHDFTQKGNLLRHIKL | -0.869 |
| FKCPICGHTFTQKGNLLRHIKL | -1.17 |
| FWCPICGRMFTQKGNLLRHIKL | 0.675 |
| FFCEICGHEFTQKGNLLRHIKL | -2 |
| FSCPICGAAFTQKGNLLRHIKL | -0.0155 |
| FNCDQCGAIFTQKGNLLRHIKL | -1.19 |
| LSCPICGFMCTQKGNLLRHIKL | 0.772 |
| FLCNQCGRLFTQKGNLLRHIKL | 0.343 |
